# Experimental data published in the supplement of paper PMC12217912.
# The other results are listed elsewhere or left out. The full chains were built here from the parent and the listed change. Values near 0.05 are background.
# B1: TEV protease; numbered along this chain (parent)
# chain: MGESLFKGPRDYNPISSSICHLTNESDGHTTSLYGIGFGPFIITNKHLFRRNNGTLVVQSLHGVFKVKDTTTLQQHLVDGRDMIIIRMPKDFPPFPQKLKFREPQREERICLVTTNFQTKSMSSMVSDTSCTFPSGDGIFWKHWIQTKDGQCGSPLVSTRDGFIVGIHSASNFTNTNNYFTSVPKNFMELLTNQEAQQWVSGWRLNADSVLWGGHKVFMVKPEEPFQPVKEATQL
# Variants of: B1
# Experiment: raw area under fraction-flipped curve 0-4 h after induction (AUC4h, not background-subtracted), DNA-recorder readout of cleavage of the substrate (dimensionless); higher = more cleavage of the substrate by the protease variant
# Settings: temperature: 34 °C; time window: 0-4 h after rhamnose induction
# 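Further: Bxb1 expression induced with 0.2% (w/v) L-rhamnose at OD600 near 0.5, cultures sampled hourly, flipped fraction per protease–substrate barcode pair counted by paired-end Illumina sequencing.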
variant,measurement,value
MGESLFKGPRDYNPISSSICHLTNESDGHTTSLYGIGFGPFIITNKHLFRRNNGTLVVQSLHGVFKVKDTTTLQQHLVDGRDMIIIRMPKDFPPFPQKLKFREPQREERICLVTTNFQTKSMSSMVSDTSCTFPSGDGIFWKHWIQTKDGQCGSPLVSTRDGFIVGIHSASNFTNTNNYFTSVPKNFMELLTNQEAQVWVSGWRLNADSVLWGGHKVFMVKPEEPFQPVKEATQL [Q198V],area with substrate ENLYFQA,0.103
same,area with substrate ENLYFQG,0.109
same,area with substrate ENLYFQH,0.0761
same,area with substrate ENLYFQI,0.0561
same,area with substrate ENLYFQK,0.0618
same,area with substrate ENLYFQL,0.0736
same,area with substrate ENLYFQN,0.0725
same,area with substrate ENLYFQS,0.108
same,area with substrate ENLYFQT,0.0744
same,area with substrate ENLYFQW,0.0672
same,area with substrate ENLYFQY,0.0792
MGEPLFKGPRDYNPISSSICHLTNESDGHTTSLYGIGFGPFIITNKHLFRRNNGTLVVQSLHGVFKVKDTTTLQQHLVDGRDMIIIRMPKDFPPFPQKLKFREPQREERICLVTTNFQTKSMSSMVSDTSCTFPSGDGIFWKHWIQTKDGQCGSPLVSTRDGFIVGIHSASNFTNTNNYFTSVPKNFMELLTNQEAQQWVSGWRLNADSVLWGGHKVFMVKPEEPFQPVKEATQL [S4P],area with substrate ENLYFQA,0.0899
same,area with substrate ENLYFQC,0.133
same,area with substrate ENLYFQD,0.0489
same,area with substrate ENLYFQF,0.0708
same,area with substrate ENLYFQG,0.0926
same,area with substrate ENLYFQH,0.071
same,area with substrate ENLYFQI,0.0673
same,area with substrate ENLYFQK,0.0613
same,area with substrate ENLYFQL,0.0656
same,area with substrate ENLYFQM,0.075
same,area with substrate ENLYFQN,0.0799
same,area with substrate ENLYFQP,0.0608
same,area with substrate ENLYFQR,0.0564
same,area with substrate ENLYFQS,0.1
same,area with substrate ENLYFQT,0.0642
same,area with substrate ENLYFQV,0.0675
same,area with substrate ENLYFQW,0.0682
same,area with substrate ENLYFQY,0.0798
MGESLFKGPRDYNPISSSICHLTNESDGHTTSLYGIGFGPFIITNKHLFRRNNGTLVVQSLHGVFKVKDTTTLQQHLVDGRDMIIIRMPKDFPPFPQKLKFREPQREERICLVTTNFQTKSMSSMVSDTSCTFPSGDGIFWKHWIQTKDGQCGSPLVSTRDGFIVGIHSASNFTNTNNYFTSVPKNFMDLLTNQEAQQWVSGWRLNADSVLWGGHKVFMVKPEEPFQPVKEATQL [E189D],area with substrate ENLYFQA,0.107
same,area with substrate ENLYFQC,0.116
same,area with substrate ENLYFQD,0.0657
same,area with substrate ENLYFQE,0.0648
same,area with substrate ENLYFQH,0.0929
same,area with substrate ENLYFQK,0.0678
same,area with substrate ENLYFQN,0.0789
same,area with substrate ENLYFQR,0.0471
same,area with substrate ENLYFQS,0.1
same,area with substrate ENLYFQT,0.0618
same,area with substrate ENLYFQV,0.067
same,area with substrate ENLYFQY,0.0753
MGESLFKGPRDYNPISSSICHLTNESDGHTTSLYGIGFGPFIITNKHLFRRNNGTLVVQSLHGVFKVKDTTTLQQHLVDGRDMIIIRMPKDFPPFPQKLKFREPQREERICLVTTNFQTKSMSSMVSDTSCTFPSGDGIFWKHWIQTKDGQCGSPLVSTRDGFIVGIHSASNFTNTNNYFTSVPKNFMELLTNQEAQQWVSGWRLNADSVLWGGHKVFMVKPEEPFQPLKEATQL [V229L],area with substrate ENLYFQA,0.101
same,area with substrate ENLYFQC,0.128
same,area with substrate ENLYFQE,0.0655
same,area with substrate ENLYFQG,0.115
same,area with substrate ENLYFQI,0.05
same,area with substrate ENLYFQK,0.0641
same,area with substrate ENLYFQL,0.0535
same,area with substrate ENLYFQM,0.0926
same,area with substrate ENLYFQN,0.0658
same,area with substrate ENLYFQP,0.0571
same,area with substrate ENLYFQR,0.0495
same,area with substrate ENLYFQS,0.114
same,area with substrate ENLYFQT,0.0598
same,area with substrate ENLYFQW,0.0771
same,area with substrate ENLYFQY,0.0734
MGESLFKGPRDYNPISSSICHLTNESDGHTTSLYGIGFGPFIITNKHLFRRNNGTLVVQSLHGVFKVKDTTTLQQHLVDGRDMIIIRMPKDFPPFPQKLKFREPQREERICLVTTNFQTKSMSSMVSDTSCTFPSGDGIFWKHWIQTKDGQCGSPLVSTRDGFIVGIHSASNFTNTNNYFTSVPKNFMELLTNQEAQQWVSGWRLNADSVLWGGHKVFMVKPEEPFQPYKEATQL [V229Y],area with substrate ENLYFQA,0.0908
same,area with substrate ENLYFQC,0.113
same,area with substrate ENLYFQF,0.063
same,area with substrate ENLYFQG,0.106
same,area with substrate ENLYFQH,0.0625
same,area with substrate ENLYFQI,0.0839
same,area with substrate ENLYFQK,0.0791
same,area with substrate ENLYFQL,0.0619
same,area with substrate ENLYFQM,0.0878
same,area with substrate ENLYFQP,0.066
same,area with substrate ENLYFQQ,0.0679
same,area with substrate ENLYFQR,0.0382
same,area with substrate ENLYFQS,0.0989
same,area with substrate ENLYFQT,0.0638
same,area with substrate ENLYFQV,0.0329
same,area with substrate ENLYFQW,0.0748
same,area with substrate ENLYFQY,0.058
MGESLFKGPRDYNPISSSICHLTNESDGHTTSLYGIGFGPFIITNKHLFRRNNGTLVVQSLHGVFKRKDTTTLQQHLVDGRDMIIIRMPKDFPPFPQKLKFREPQREERICLVTTNFQTKSMSSMVSDTSCTFPSGDGIFWKHWIQTKDGQCGSPLVSTRDGFIVGIHSASNFTNTNNYFTSVPKNFMELLTNQEAQQWVSGWRLNADSVLWGGHKVFMVKPEEPFQPVKEATQL [V67R],area with substrate ENLYFQA,0.0559
same,area with substrate ENLYFQC,0.0607
same,area with substrate ENLYFQD,0.0333
same,area with substrate ENLYFQF,0.0412
same,area with substrate ENLYFQG,0.0604
same,area with substrate ENLYFQI,0.0528
same,area with substrate ENLYFQK,0.0517
same,area with substrate ENLYFQL,0.0532
same,area with substrate ENLYFQR,0.0554
same,area with substrate ENLYFQS,0.0608
same,area with substrate ENLYFQT,0.0491
same,area with substrate ENLYFQV,0.0468
same,area with substrate ENLYFQW,0.0479
MGESLFKGPRDYNPISSSICHLTNESDGHTTSLYGIGFGPFIITNKHLFRRNNGTLVVQSLHGVFKVKDTTTLQQHLVDGRDMIIIRMPKDFPPFPQKLKFREPQREERICLVTTNFQTKSMSSMVSDTSCTFPSGDGIFWKHWIQTKDGQCGSPLVSTRDGFIVGIHSASNFTNTNNYFTSVPKNFMELLDNQEAQQWVSGWRLNADSVLWGGHKVFMVKPEEPFQPVKEATQL [T192D],area with substrate ENLYFQA,0.107
same,area with substrate ENLYFQC,0.117
same,area with substrate ENLYFQD,0.0709
same,area with substrate ENLYFQF,0.0548
same,area with substrate ENLYFQG,0.0896
same,area with substrate ENLYFQI,0.115
same,area with substrate ENLYFQK,0.058
same,area with substrate ENLYFQL,0.0571
same,area with substrate ENLYFQM,0.103
same,area with substrate ENLYFQN,0.0669
same,area with substrate ENLYFQQ,0.0619
same,area with substrate ENLYFQR,0.0519
same,area with substrate ENLYFQS,0.0994
same,area with substrate ENLYFQT,0.0447
same,area with substrate ENLYFQV,0.052
same,area with substrate ENLYFQW,0.0572
MGESLFKGPRDYNPISSSICHLTNESDGHTTSLYGIGFGPFIITNKHLFRCNNGTLVVQSLHGVFKVKDTTTLQQHLVDGRDMIIIRMPKDFPPFPQKLKFREPQREERICLVTTNFQTKSMSSMVSDTSCTFPSGDGIFWKHWIQTKDGQCGSPLVSTRDGFIVGIHSASNFTNTNNYFTSVPKNFMELLTNQEAQQWVSGWRLNADSVLWGGHKVFMVKPEEPFQPVKEATQL [R51C],area with substrate ENLYFQA,0.0995
same,area with substrate ENLYFQC,0.107
same,area with substrate ENLYFQD,0.0666
same,area with substrate ENLYFQF,0.116
same,area with substrate ENLYFQG,0.0791
same,area with substrate ENLYFQH,0.0704
same,area with substrate ENLYFQI,0.0708
same,area with substrate ENLYFQK,0.0688
same,area with substrate ENLYFQL,0.0634
same,area with substrate ENLYFQM,0.107
same,area with substrate ENLYFQN,0.0766
same,area with substrate ENLYFQR,0.0589
same,area with substrate ENLYFQS,0.108
same,area with substrate ENLYFQT,0.062
same,area with substrate ENLYFQW,0.0705
same,area with substrate ENLYFQY,0.0657
MGESLFKGPRDYNPISSSICHLTNESDGHTTSLYGIGFGPFIITNKHLFRRNNGTLVVQSLHGVFKVKDTTTLQQHLVDHRDMIIIRMPKDFPPFPQKLKFREPQREERICLVTTNFQTKSMSSMVSDTSCTFPSGDGIFWKHWIQTKDGQCGSPLVSTRDGFIVGIHSASNFTNTNNYFTSVPKNFMELLTNQEAQQWVSGWRLNADSVLWGGHKVFMVKPEEPFQPVKEATQL [G80H],area with substrate ENLYFQA,0.102
same,area with substrate ENLYFQC,0.154
same,area with substrate ENLYFQD,0.0797
same,area with substrate ENLYFQF,0.0781
same,area with substrate ENLYFQH,0.0783
same,area with substrate ENLYFQI,0.0455
same,area with substrate ENLYFQK,0.0615
same,area with substrate ENLYFQM,0.0812
same,area with substrate ENLYFQN,0.0848
same,area with substrate ENLYFQP,0.0664
same,area with substrate ENLYFQS,0.106
same,area with substrate ENLYFQT,0.0691
same,area with substrate ENLYFQW,0.0552
